# According to the supplement of paper PMC8728848:
# Some of the results follow.
# B1: CFEM-PPl (Pichia pastoris), F2QPV1 (protein)
# chain: AVATPPACLLACAAEVVKESSDCDALNNIQCICENEGSAIHACLESTCPDGLSSTALQSFEDVCESVGTEANLDE
# What was measured:
# Test in all cases: glycan array binding signal (z-score within array); higher = stronger binding
# Settings in all cases: glycan notation: IUPAC condensed, linker removed
# [1] = target: Fuc(a1-2)Gal6S(b1-3)GlcNAc
# How it was run: (§1)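 Glycan array data came from 3228 arrays in the Consortium for Functional Glycomics database, and only arrays with an available protein sequence were kept. Glycan names were put into IUPAC-condensed notation, and columns mapping to the same glycan were averaged. The binding signal is a within-array Z-score, averaged across arrays of one protein sequence run at different concentrations or buffers and across linkers. A negative Z-score can be read as non-binding.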
# [2] = target: Fuc(a1-2)Gal6S(b1-3)GlcNAc6S
# How it was run: as §1
# Fuc(a1-2)Gal6S(b1-4)Glc = target: Fuc(a1-2)Gal6S(b1-4)Glc
# How it was run: as §1
# [3] = target: Fuc(a1-2)Gal6S(b1-4)Glc6S
# How it was run: as §1
# Fuc(a1-2)[Gal(a1-3)]Gal = target: Fuc(a1-2)[Gal(a1-3)]Gal
# How it was run: as §1
# [4] = target: Fuc(a1-2)[Gal(a1-3)]Gal(b1-3)GalNAc
# How it was run: as §1
# [5] = target: Fuc(a1-2)[Gal(a1-3)]Gal(b1-3)GalNAc(b1-3)Gal(a1-4)Gal(b1-4)Glc
# How it was run: as §1
# [6] = target: Fuc(a1-2)[Gal(a1-3)]Gal(b1-3)GlcNAc
# How it was run: as §1
# [7] = target: Fuc(a1-2)[Gal(a1-3)]Gal(b1-3)GlcNAc(b1-2)Man(a1-3)[Fuc(a1-2)[Gal(a1-3)]Gal(b1-3)GlcNAc(b1-2)Man(a1-6)]Man(b1-4)GlcNAc(b1-4)GlcNAc
# How it was run: as §1
# [8] = target: Fuc(a1-2)[Gal(a1-3)]Gal(b1-3)GlcNAc(b1-2)Man(a1-3)[Fuc(a1-2)[Gal(a1-3)]Gal(b1-3)GlcNAc(b1-2)Man(a1-6)]Man(b1-4)GlcNAc(b1-4)[Fuc(a1-6)]GlcNAc
# How it was run: as §1
# [9] = target: Fuc(a1-2)[Gal(a1-3)]Gal(b1-3)GlcNAc(b1-3)GalNAc
# How it was run: as §1
# [10] = target: Fuc(a1-2)[Gal(a1-3)]Gal(b1-3)GlcNAc(b1-6)GalNAc
# How it was run: as §1
# [11] = target: Fuc(a1-2)[Gal(a1-3)]Gal(b1-4)Glc
# How it was run: as §1
# [12] = target: Fuc(a1-2)[Gal(a1-3)]Gal(b1-4)GlcNAc
# How it was run: as §1
# [13] = target: Fuc(a1-2)[Gal(a1-3)]Gal(b1-4)GlcNAc(b1-2)Man
# How it was run: as §1
# [14] = target: Fuc(a1-2)[Gal(a1-3)]Gal(b1-4)GlcNAc(b1-2)Man(a1-3)[Fuc(a1-2)[Gal(a1-3)]Gal(b1-4)GlcNAc(b1-2)Man(a1-6)]Man(b1-4)GlcNAc(b1-4)GlcNAc
# How it was run: as §1
# [15] = target: Fuc(a1-2)[Gal(a1-3)]Gal(b1-4)GlcNAc(b1-2)Man(a1-3)[Fuc(a1-2)[Gal(a1-3)]Gal(b1-4)GlcNAc(b1-2)Man(a1-6)]Man(b1-4)GlcNAc(b1-4)[Fuc(a1-6)]GlcNAc
# How it was run: as §1
# [16] = target: Fuc(a1-2)[Gal(a1-3)]Gal(b1-4)GlcNAc(b1-3)GalNAc
# How it was run: as §1
# [17] = target: Fuc(a1-2)[Gal(a1-3)]Gal(b1-4)GlcNAc(b1-3)[Fuc(a1-2)[Gal(a1-3)]Gal(b1-4)GlcNAc(b1-6)]GalNAc
# How it was run: as §1
# [18] = target: Fuc(a1-2)[Gal(a1-3)]Gal(b1-4)GlcNAc(b1-6)GalNAc
# How it was run: as §1
# [19] = target: Fuc(a1-2)[Gal(a1-3)]Gal(b1-4)[Fuc(a1-3)]Glc
# How it was run: as §1
# [20] = target: Fuc(a1-2)[Gal(a1-3)]Gal(b1-4)[Fuc(a1-3)]GlcNAc
# How it was run: as §1
# [21] = target: Fuc(a1-2)[Gal(a1-3)]Gal(b1-4)[Fuc(a1-3)]GlcNAc(b1-3)GalNAc
# How it was run: as §1
# [22] = target: Fuc(a1-2)[Gal(a1-4)]Gal(b1-4)GlcNAc
# How it was run: as §1
# [23] = target: Fuc(a1-2)[GalNAc(a1-3)]Gal
# How it was run: as §1
# [24] = target: Fuc(a1-2)[GalNAc(a1-3)]Gal(b1-3)GalNAc(a1-3)[Fuc(a1-2)]Gal(b1-4)GlcNAc
# How it was run: as §1
# [25] = target: Fuc(a1-2)[GalNAc(a1-3)]Gal(b1-3)GalNAc(b1-3)Gal(a1-4)Gal(b1-4)Glc
# How it was run: as §1
# [26] = target: Fuc(a1-2)[GalNAc(a1-3)]Gal(b1-3)GlcNAc
# How it was run: as §1
# [27] = target: Fuc(a1-2)[GalNAc(a1-3)]Gal(b1-3)GlcNAc(b1-2)Man(a1-3)[Fuc(a1-2)[GalNAc(a1-3)]Gal(b1-3)GlcNAc(b1-2)Man(a1-6)]Man(b1-4)GlcNAc(b1-4)GlcNAc
# How it was run: as §1
# [28] = target: Fuc(a1-2)[GalNAc(a1-3)]Gal(b1-3)GlcNAc(b1-2)Man(a1-3)[Fuc(a1-2)[GalNAc(a1-3)]Gal(b1-3)GlcNAc(b1-2)Man(a1-6)]Man(b1-4)GlcNAc(b1-4)[Fuc(a1-6)]GlcNAc
# How it was run: as §1
# [29] = target: Fuc(a1-2)[GalNAc(a1-3)]Gal(b1-3)GlcNAc(b1-3)GalNAc
# How it was run: as §1
# [30] = target: Fuc(a1-2)[GalNAc(a1-3)]Gal(b1-3)GlcNAc(b1-6)GalNAc
# How it was run: as §1
# [31] = target: Fuc(a1-2)[GalNAc(a1-3)]Gal(b1-4)Glc
# How it was run: as §1
# [32] = target: Fuc(a1-2)[GalNAc(a1-3)]Gal(b1-4)GlcNAc
# How it was run: as §1
# [33] = target: Fuc(a1-2)[GalNAc(a1-3)]Gal(b1-4)GlcNAc(b1-2)Man
# How it was run: as §1
# [34] = target: Fuc(a1-2)[GalNAc(a1-3)]Gal(b1-4)GlcNAc(b1-2)Man(a1-3)[Fuc(a1-2)[GalNAc(a1-3)]Gal(b1-4)GlcNAc(b1-2)Man(a1-6)]Man(b1-4)GlcNAc(b1-4)GlcNAc
# How it was run: as §1
# [35] = target: Fuc(a1-2)[GalNAc(a1-3)]Gal(b1-4)GlcNAc(b1-2)Man(a1-3)[Fuc(a1-2)[GalNAc(a1-3)]Gal(b1-4)GlcNAc(b1-2)Man(a1-6)]Man(b1-4)GlcNAc(b1-4)[Fuc(a1-6)]GlcNAc
# How it was run: as §1
# [36] = target: Fuc(a1-2)[GalNAc(a1-3)]Gal(b1-4)GlcNAc(b1-3)Gal(b1-4)GlcNAc
# How it was run: as §1
# [37] = target: Fuc(a1-2)[GalNAc(a1-3)]Gal(b1-4)GlcNAc(b1-3)Gal(b1-4)GlcNAc(b1-3)Gal(b1-4)GlcNAc
# How it was run: as §1
# [38] = target: Fuc(a1-2)[GalNAc(a1-3)]Gal(b1-4)GlcNAc(b1-3)GalNAc
# How it was run: as §1
# [39] = target: Fuc(a1-2)[GalNAc(a1-3)]Gal(b1-4)GlcNAc(b1-3)[Fuc(a1-2)[GalNAc(a1-3)]Gal(b1-4)GlcNAc(b1-6)]GalNAc
# How it was run: as §1
# [40] = target: Fuc(a1-2)[GalNAc(a1-3)]Gal(b1-4)GlcNAc(b1-6)GalNAc
# How it was run: as §1
# [41] = target: Fuc(a1-2)[GalNAc(a1-3)]Gal(b1-4)[Fuc(a1-3)]GlcNAc
# How it was run: as §1
# [42] = target: Fuc(a1-2)[GalNAc(a1-3)]Gal(b1-4)[Fuc(a1-3)]GlcNAc(b1-3)GalNAc
# How it was run: as §1
# [43] = target: Fuc(a1-2)[GalNAc(a1-4)]Gal(b1-4)GlcNAc
# How it was run: as §1
binder,measurement,setting,value
B1,glycan array binding signal (z-score),[1],-0.337
same,glycan array binding signal (z-score),[2],-0.279
same,glycan array binding signal (z-score),Fuc(a1-2)Gal6S(b1-4)Glc,-0.076
same,glycan array binding signal (z-score),[3],-0.192
same,glycan array binding signal (z-score),Fuc(a1-2)[Gal(a1-3)]Gal,-0.049
same,glycan array binding signal (z-score),[4],-0.261
same,glycan array binding signal (z-score),[5],-0.215
same,glycan array binding signal (z-score),[6],-0.267
same,glycan array binding signal (z-score),[7],-0.253
same,glycan array binding signal (z-score),[8],-0.37
same,glycan array binding signal (z-score),[9],-0.292
same,glycan array binding signal (z-score),[10],-0.339
same,glycan array binding signal (z-score),[11],-0.213
same,glycan array binding signal (z-score),[12],-0.122
same,glycan array binding signal (z-score),[13],-0.325
same,glycan array binding signal (z-score),[14],-0.252
same,glycan array binding signal (z-score),[15],-0.291
same,glycan array binding signal (z-score),[16],-0.044
same,glycan array binding signal (z-score),[17],-0.125
same,glycan array binding signal (z-score),[18],-0.255
same,glycan array binding signal (z-score),[19],-0.319
same,glycan array binding signal (z-score),[20],-0.197
same,glycan array binding signal (z-score),[21],-0.033
same,glycan array binding signal (z-score),[22],-0.168
same,glycan array binding signal (z-score),[23],-0.197
same,glycan array binding signal (z-score),[24],-0.357
same,glycan array binding signal (z-score),[25],-0.315
same,glycan array binding signal (z-score),[26],-0.157
same,glycan array binding signal (z-score),[27],-0.271
same,glycan array binding signal (z-score),[28],-0.118
same,glycan array binding signal (z-score),[29],0.166
same,glycan array binding signal (z-score),[30],-0.149
same,glycan array binding signal (z-score),[31],0.007
same,glycan array binding signal (z-score),[32],-0.284
same,glycan array binding signal (z-score),[33],-0.243
same,glycan array binding signal (z-score),[34],-0.126
same,glycan array binding signal (z-score),[35],-0.244
same,glycan array binding signal (z-score),[36],-0.348
same,glycan array binding signal (z-score),[37],-0.375
same,glycan array binding signal (z-score),[38],-0.294
same,glycan array binding signal (z-score),[39],-0.015
same,glycan array binding signal (z-score),[40],-0.249
same,glycan array binding signal (z-score),[41],0.057
same,glycan array binding signal (z-score),[42],2.17
same,glycan array binding signal (z-score),[43],-0.315
